# According to the supplement of paper PMC8728848:
# The other results are listed elsewhere or left out.
# Key:
# Assay in all cases: glycan array binding signal (z-score within array); higher = stronger binding
# Details in all cases: glycan notation: IUPAC condensed, linker removed
# [1] = target: Fuc(a1-2)[GalNAc(a1-3)]Gal(b1-3)GlcNAc(b1-6)GalNAc
# How it was run: (§1)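 The binding signal is a Z-score computed within each array. Data were drawn from 3228 arrays in the Consortium for Functional Glycomics database, restricted to those with a known protein sequence. Scores were averaged over arrays of the same protein sequence at different concentrations or buffers, and over linkers, and negative values can be taken as non-binding.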
# [2] = target: Fuc(a1-2)[GalNAc(a1-3)]Gal(b1-4)Glc
# How it was run: as §1
# [3] = target: Fuc(a1-2)[GalNAc(a1-3)]Gal(b1-4)GlcNAc
# How it was run: as §1
# [4] = target: Fuc(a1-2)[GalNAc(a1-3)]Gal(b1-4)GlcNAc(b1-2)Man
# How it was run: as §1
# [5] = target: Fuc(a1-2)[GalNAc(a1-3)]Gal(b1-4)GlcNAc(b1-2)Man(a1-3)[Fuc(a1-2)[GalNAc(a1-3)]Gal(b1-4)GlcNAc(b1-2)Man(a1-6)]Man(b1-4)GlcNAc(b1-4)GlcNAc
# How it was run: as §1
# [6] = target: Fuc(a1-2)[GalNAc(a1-3)]Gal(b1-4)GlcNAc(b1-2)Man(a1-3)[Fuc(a1-2)[GalNAc(a1-3)]Gal(b1-4)GlcNAc(b1-2)Man(a1-6)]Man(b1-4)GlcNAc(b1-4)[Fuc(a1-6)]GlcNAc
# How it was run: as §1
# [7] = target: Fuc(a1-2)[GalNAc(a1-3)]Gal(b1-4)GlcNAc(b1-3)Gal(b1-4)GlcNAc
# How it was run: as §1
# [8] = target: Fuc(a1-2)[GalNAc(a1-3)]Gal(b1-4)GlcNAc(b1-3)Gal(b1-4)GlcNAc(b1-3)Gal(b1-4)GlcNAc
# How it was run: as §1
# [9] = target: Fuc(a1-2)[GalNAc(a1-3)]Gal(b1-4)GlcNAc(b1-3)GalNAc
# How it was run: as §1
# [10] = target: Fuc(a1-2)[GalNAc(a1-3)]Gal(b1-4)GlcNAc(b1-3)[Fuc(a1-2)[GalNAc(a1-3)]Gal(b1-4)GlcNAc(b1-6)]GalNAc
# How it was run: as §1
# [11] = target: Fuc(a1-2)[GalNAc(a1-3)]Gal(b1-4)GlcNAc(b1-6)GalNAc
# How it was run: as §1
# [12] = target: Fuc(a1-2)[GalNAc(a1-3)]Gal(b1-4)[Fuc(a1-3)]GlcNAc
# How it was run: as §1
# [13] = target: Fuc(a1-2)[GalNAc(a1-3)]Gal(b1-4)[Fuc(a1-3)]GlcNAc(b1-3)GalNAc
# How it was run: as §1
# [14] = target: Fuc(a1-2)[GalNAc(a1-4)]Gal(b1-4)GlcNAc
# How it was run: as §1
# [15] = target: Fuc(a1-2)[GalNAc(b1-3)]Gal
# How it was run: as §1
# Fuc(a1-3)GlcNAc = target: Fuc(a1-3)GlcNAc
# How it was run: as §1
# [16] = target: Fuc(a1-3)[Gal(b1-4)]Glc6S
# How it was run: as §1
# [17] = target: Fuc(a1-3)[Gal(b1-4)]GlcNAc
# How it was run: as §1
# [18] = target: Fuc(a1-3)[Gal(b1-4)]GlcNAc(b1-2)Man
# How it was run: as §1
# [19] = target: Fuc(a1-3)[Gal(b1-4)]GlcNAc(b1-2)Man(a1-3)[Fuc(a1-3)[Gal(b1-4)]GlcNAc(b1-2)Man(a1-6)]Man(b1-4)GlcNAc(b1-4)GlcNAc
# How it was run: as §1
# [20] = target: Fuc(a1-3)[Gal(b1-4)]GlcNAc(b1-2)Man(a1-3)[Fuc(a1-3)[Gal(b1-4)]GlcNAc(b1-2)Man(a1-6)]Man(b1-4)GlcNAc(b1-4)[Fuc(a1-6)]GlcNAc
# How it was run: as §1
# [21] = target: Fuc(a1-3)[Gal(b1-4)]GlcNAc(b1-3)Gal(b1-3)[Fuc(a1-4)]GlcNAc
# How it was run: as §1
# [22] = target: Fuc(a1-3)[Gal(b1-4)]GlcNAc(b1-3)Gal(b1-4)[Fuc(a1-3)]GlcNAc
# How it was run: as §1
# [23] = target: Fuc(a1-3)[Gal(b1-4)]GlcNAc(b1-3)Gal(b1-4)[Fuc(a1-3)]GlcNAc(b1-3)Gal(b1-4)[Fuc(a1-3)]GlcNAc
# How it was run: as §1
# [24] = target: Fuc(a1-3)[Gal(b1-4)]GlcNAc(b1-3)GalNAc
# How it was run: as §1
# [25] = target: Fuc(a1-3)[Gal(b1-4)]GlcNAc(b1-6)GalNAc
# How it was run: as §1
# [26] = target: Fuc(a1-3)[Gal(b1-4)]GlcNAc(b1-6)[Gal(b1-3)GlcNAc(b1-3)]Gal(b1-4)Glc
# How it was run: as §1
# [27] = target: Fuc(a1-3)[Gal(b1-4)]GlcNAc6S
# How it was run: as §1
# [28] = target: Fuc(a1-3)[Gal3S(b1-4)]Glc
# How it was run: as §1
# [29] = target: Fuc(a1-3)[Gal3S(b1-4)]GlcNAc
# How it was run: as §1
# [30] = target: Fuc(a1-3)[Gal3S(b1-4)]GlcNAc6S
# How it was run: as §1
# [31] = target: Fuc(a1-3)[GalNAc(b1-4)]GlcNAc
# How it was run: as §1
# [32] = target: Fuc(a1-3)[GalNAc(b1-4)]GlcNAc6S
# How it was run: as §1
# Fuc(a1-4)GlcNAc = target: Fuc(a1-4)GlcNAc
# How it was run: as §1
# Fuc(b1-3)GlcNAc = target: Fuc(b1-3)GlcNAc
# How it was run: as §1
# Gal(a1-2)Gal = target: Gal(a1-2)Gal
# How it was run: as §1
# Gal(a1-3)Gal = target: Gal(a1-3)Gal
# How it was run: as §1
binder,measurement,setting,value
OGAA (protein) MVQKESQATLEERESELSSNPAASAGASLEPPAAPAPGEDNPAGAGGAAVAGAAGGARRFLCGVVEGFYGRPWVMEQRKELFRRLQKWELNTYLYAPKDDYKHRMFWREMYSVEEAEQLMTLISAAREYEIEFIYAISPGLDITFSNPKEVSTLKRKLDQVSQFGCRSFALLFADIDHNMCAADKEVFSSFAHAQVSITNEIYQYLGEPETFLFCPTEYCGTFCYPNVSQSPYLRTVGEKLLPGIEVLWTGPKVVSKEIPVESIEEVSKIIKRAPVIWDNIHANDYDQKRLFLGPYKGRSTELIPRLKGVLTNPNCEFEANYVAIHTLATWYKSNMNGVRKDVVMTDSEDSTVSIQIKLENEGSDEDIETDVLYSPQMALKLALTEWLQEFGVPHQY,glycan array binding signal (z-score),[1],-0.088
same,glycan array binding signal (z-score),[2],-0.075
same,glycan array binding signal (z-score),[3],-0.076
same,glycan array binding signal (z-score),[4],-0.091
same,glycan array binding signal (z-score),[5],0.001
same,glycan array binding signal (z-score),[6],-0.123
same,glycan array binding signal (z-score),[7],-0.067
same,glycan array binding signal (z-score),[8],-0.119
same,glycan array binding signal (z-score),[9],0.012
same,glycan array binding signal (z-score),[10],-0.11
same,glycan array binding signal (z-score),[11],-0.059
same,glycan array binding signal (z-score),[12],-0.081
same,glycan array binding signal (z-score),[13],-0.089
same,glycan array binding signal (z-score),[14],-0.097
same,glycan array binding signal (z-score),[15],-0.105
same,glycan array binding signal (z-score),Fuc(a1-3)GlcNAc,-0.07
same,glycan array binding signal (z-score),[16],-0.09
same,glycan array binding signal (z-score),[17],-0.025
same,glycan array binding signal (z-score),[18],-0.025
same,glycan array binding signal (z-score),[19],-0.086
same,glycan array binding signal (z-score),[20],0.034
same,glycan array binding signal (z-score),[21],-0.011
same,glycan array binding signal (z-score),[22],0.1
same,glycan array binding signal (z-score),[23],-0.104
same,glycan array binding signal (z-score),[24],-0.113
same,glycan array binding signal (z-score),[25],0.242
same,glycan array binding signal (z-score),[26],-0.127
same,glycan array binding signal (z-score),[27],-0.107
same,glycan array binding signal (z-score),[28],-0.02
same,glycan array binding signal (z-score),[29],-0.012
same,glycan array binding signal (z-score),[30],0.008
same,glycan array binding signal (z-score),[31],-0.062
same,glycan array binding signal (z-score),[32],-0.107
same,glycan array binding signal (z-score),Fuc(a1-4)GlcNAc,-0.06
same,glycan array binding signal (z-score),Fuc(b1-3)GlcNAc,-0.13
same,glycan array binding signal (z-score),Gal(a1-2)Gal,0.002
same,glycan array binding signal (z-score),Gal(a1-3)Gal,-0.053
